Experimental data taken from article PMC3542376.
These are yes or no findings as the source states them, for the method shown. For some of these results: Binding seen in cells or lysates may run through a third protein. Some results given as binding are weak or reduced against the parent protein; the word gives no strength.

Protein sequences, listed by entry. Tags and fused reporters are not part of them. Lines headed by an entry give the natural chain unless they say otherwise; changes in a name come on top. Chains listed by the source or under a name are the forms on record and can include a tag or linker.
GST-HMGA1b (P17096, form named): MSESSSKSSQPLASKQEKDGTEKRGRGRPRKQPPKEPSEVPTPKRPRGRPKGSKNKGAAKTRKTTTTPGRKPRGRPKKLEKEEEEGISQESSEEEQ
UniProt P49773: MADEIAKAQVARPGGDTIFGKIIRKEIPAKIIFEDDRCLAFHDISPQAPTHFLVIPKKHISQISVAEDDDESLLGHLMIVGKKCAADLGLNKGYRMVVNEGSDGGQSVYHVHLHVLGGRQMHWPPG
UniProt Q15274: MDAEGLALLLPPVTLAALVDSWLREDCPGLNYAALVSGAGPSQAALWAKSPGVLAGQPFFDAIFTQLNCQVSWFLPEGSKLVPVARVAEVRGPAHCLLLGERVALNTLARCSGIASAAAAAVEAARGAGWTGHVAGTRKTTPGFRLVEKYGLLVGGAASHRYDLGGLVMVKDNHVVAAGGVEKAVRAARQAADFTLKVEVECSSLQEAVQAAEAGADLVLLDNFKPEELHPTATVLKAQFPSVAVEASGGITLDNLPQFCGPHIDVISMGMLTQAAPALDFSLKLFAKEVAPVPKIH
UniProt P50750: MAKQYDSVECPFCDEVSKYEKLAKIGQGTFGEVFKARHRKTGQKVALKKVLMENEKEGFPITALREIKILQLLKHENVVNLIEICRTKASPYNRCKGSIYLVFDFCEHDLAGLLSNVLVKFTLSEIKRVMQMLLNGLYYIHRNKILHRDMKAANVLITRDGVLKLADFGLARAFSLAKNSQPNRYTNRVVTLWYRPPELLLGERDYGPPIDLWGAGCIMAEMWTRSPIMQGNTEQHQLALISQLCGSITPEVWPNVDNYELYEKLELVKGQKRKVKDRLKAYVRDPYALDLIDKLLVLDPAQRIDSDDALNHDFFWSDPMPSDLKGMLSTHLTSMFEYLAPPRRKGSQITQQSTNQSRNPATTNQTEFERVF
UniProt P07954: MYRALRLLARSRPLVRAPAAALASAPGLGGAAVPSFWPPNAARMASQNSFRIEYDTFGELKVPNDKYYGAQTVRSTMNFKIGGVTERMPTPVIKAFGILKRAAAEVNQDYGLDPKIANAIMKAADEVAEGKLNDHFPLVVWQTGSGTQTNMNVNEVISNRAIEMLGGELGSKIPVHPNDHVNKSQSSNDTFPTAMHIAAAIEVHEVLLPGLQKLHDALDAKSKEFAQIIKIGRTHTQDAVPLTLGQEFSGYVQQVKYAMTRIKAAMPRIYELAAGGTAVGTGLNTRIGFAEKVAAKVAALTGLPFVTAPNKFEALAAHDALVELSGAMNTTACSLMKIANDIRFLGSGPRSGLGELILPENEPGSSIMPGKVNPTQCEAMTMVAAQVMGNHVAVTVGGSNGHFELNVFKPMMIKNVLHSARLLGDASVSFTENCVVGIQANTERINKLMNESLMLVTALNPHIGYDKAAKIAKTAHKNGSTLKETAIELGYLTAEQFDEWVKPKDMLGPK
UniProt P15531: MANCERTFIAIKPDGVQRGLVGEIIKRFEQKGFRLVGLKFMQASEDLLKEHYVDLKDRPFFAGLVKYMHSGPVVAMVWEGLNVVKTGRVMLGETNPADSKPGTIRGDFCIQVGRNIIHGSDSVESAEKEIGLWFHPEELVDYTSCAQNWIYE

What was measured:
GST-HMGA1b = GST-HMGA1b (UniProt P17096); assay: pull-down; GST fusion protein as bait; 35S-methionine labelled in vitro translated HA-tagged partner; fluorography; input 20%; only the target purified
GST-PRMT6 (human) = GST-PRMT6 (human) (UniProt Q96LA8); assay: as above
[1] = target: PRMT6 full length (aa 1-375), LexA fusion (human) (UniProt Q96LA8); assay: two-hybrid; library screen: LexA-PRMT6 (aa 1-375) as bait in S. cerevisiae EGY48, human fetal brain cDNA library in pJG4-5 as prey; Leu+ and beta-galactosidase filter assay; positives re-transformed and confirmed
[2] = target: PRMT6 1-86, LexA fusion (human) (UniProt Q96LA8); assay: two-hybrid; pairwise mapping: EGY48 with LexA-PRMT6 full length or deletion mutants and each partner in pJG4-5; assayed as in the screen
[3] = target: PRMT6 185-375, LexA fusion (human) (UniProt Q96LA8); assay: as above
[4] = target: PRMT6 1-184, LexA fusion (human) (UniProt Q96LA8); assay: as above
[5] = target: PRMT6 full length (aa 1-375), LexA fusion (human) (UniProt Q96LA8); assay: as above
[6] = target: PRMT6 87-375, LexA fusion (human) (UniProt Q96LA8); assay: as above

“HSJ-2, HA-tagged, in vitro translated (from UniProt P31689 1-397)” was tested, and the binding (GST-HMGA1b) was “binds” and the binding (GST-PRMT6 (human)) was “binds”.

“Hint1, HA-tagged, in vitro translated (from UniProt P49773 1-126)” was tested, and the binding (GST-HMGA1b) was “no binding” and the binding (GST-PRMT6 (human)) was “binds”.

In the case of “QPRT, HA-tagged, in vitro translated (from UniProt Q15274 1-297)”, the binding (GST-HMGA1b) is reported as “no binding”.

For “CDK9, HA-tagged, in vitro translated (from UniProt P50750 1-372)”, the binding (GST-HMGA1b) was “no binding” and the binding (GST-PRMT6 (human)) was “binds”.

In the case of “FH, HA-tagged, in vitro translated (from UniProt P07954 1-510)”, the binding (GST-HMGA1b) is reported as “no binding” and the binding (GST-PRMT6 (human)) is reported as “binds”.

In the case of “Nm23-H1, HA-tagged, in vitro translated (from UniProt P15531 1-152)”, the binding (GST-HMGA1b) is reported as “no binding”.

B1: PRPF39 (protein, UniProt Q86UA1 1-669)
chain: MQNSHMDEYRNSSNGSTGNSSEVVVEHPTDFSTEIMNVTEMEQSPDDSPNVNASTEETEMASAVDLPVTLTETEANFPPEYEKFWKTVENNPQDFTGWVYLLQYVEQENHLMAARKAFDRFFIHYPYCYGYWKKYADLEKRHDNIKPSDEVYRRGLQAIPLSVDLWIHYINFLKETLDPGDPETNNTIRGTFEHAVLAAGTDFRSDRLWEMYINWENEQGNLREVTAIYDRILGIPTQLYSHHFQRFKEHVQNNLPRDLLTGEQFIQLRRELASVNGHSGDDGPPGDDLPSGIEDITDPAKLITEIENMRHRIIEIHQEMFNYNEHEVSKRWTFEEGIKRPYFHVKPLEKAQLKNWKEYLEFEIENGTHERVVVLFERCVISCALYEEFWIKYAKYMENHSIEGVRHVFSRACTIHLPKKPMVHMLWAAFEEQQGNINEARNILKTFEECVLGLAMVRLRRVSLERRHGNLEEAEHLLQDAIKNAKSNNESSFYAVKLARHLFKIQKNLPKSRKVLLEAIERDKENTKLYLNLLEMEYSGDLKQNEENILNCFDKAVHGSLPIKMRITFSQRKVEFLEDFGSDVNKLLNAYDEHQTLLKEQDSLKRKAENGSEEPEEKKAHTEDTTSSSTQMIDGDLQANQAVYNYSAWYQYNYQNPWNYGQYYPPPPT
For B1, the binding [1] was “binds”, the binding [2] was “binds” and the binding [3] was “no binding”. For the same molecule, the binding [4] was “binds”, the binding [5] was “binds” and the binding [6] was “no binding”.

B2: PRDX4 (protein, UniProt Q13162 1-271)
chain: MEALPLLAATTPDHGRHRRLLLLPLLLFLLPAGAVQGWETEERPRTREEECHFYAGGQVYPGEASRVSVADHSLHLSKAKISKPAPYWEGTAVIDGEFKELKLTDYRGKYLVFFFYPLDFTFVCPTEIIAFGDRLEEFRSINTEVVACSVDSQFTHLAWINTPRRQGGLGPIRIPLLSDLTHQISKDYGVYLEDSGHTLRGLFIIDDKGILRQITLNDLPVGRSVDETLRLVQAFQYTDKHGEVCPAGWKPGSETIIPDPAGKLKYFDKLN
B2 was tested, and the binding [1] was “binds”, the binding [2] was “binds” and the binding [3] was “no binding”. For the same molecule, the binding [4] was “binds”, the binding [5] was “binds” and the binding [6] was “no binding”.

B3: SAAL1 (protein, UniProt Q96ER3 1-474)
chain: MDRNPSPPPPGRDKEEEEEVAGGDCIGSTVYSKHWLFGVLSGLIQIVSPENTKSSSDDEEQLTELDEEMENEICRVWDMSMDEDVALFLQEFNAPDIFMGVLAKSKCPRLREICVGILGNMACFQEICVSISSDKNLGQVLLHCLYDSDPPTLLETSRLLLTCLSQAEVASVWVERIQEHPAIYDSICFIMSSSTNVDLLVKVGEVVDKLFDLDEKLMLEWVRNGAAQPLDQPQEESEEQPVFRLVPCILEAAKQVRSENPEWLDVYMHILQLLTTVDDGIQAIVHCPDTGKDIWNLLFDLVCHEFCQSDDPPIILQEQKTVLASVFSVLSAIYASQTEQEYLKIEKVDLPLIDSLIRVLQNMEQCQKKPENSAESNTEETKRTDLTQDDFHLKILKDILCEFLSNIFQALTKETVAQGVKEGQLSKQKCSSAFQNLLPFYSPVVEDFIKILREVDKALADDLEKNFPSLKVQT
With B3 the binding [1] was “binds”, the binding [2] was “binds” and the binding [3] was “no binding”. The binding [4] was “binds”, the binding [5] was “binds” and the binding [6] was “no binding”.

B4: HPRT1 (protein, UniProt P00492 1-218)
chain: MATRSPGVVISDDEPGYDLDLFCIPNHYAEDLERVFIPHGLIMDRTERLARDVMKEMGGHHIVALCVLKGGYKFFADLLDYIKALNRNSDRSIPMTVDFIRLKSYCNDQSTGDIKVIGGDDLSTLTGKNVLIVEDIIDTGKTMQTLLSLVRQYNPKMVKVASLLVKRTPRSVGYKPDFVGFEIPDKFVVGYALDYNEYFRDLNHVCVISETGKAKYKA
In the case of B4, the binding [1] is reported as “binds”, the binding [2] is reported as “binds” and the binding [3] is reported as “no binding”. The binding [4] was “binds”, the binding [5] was “binds” and the binding [6] was “no binding”.

B5: PTS (protein, UniProt Q03393 1-145)
chain: MSTEGGGRRCQAQVSRRISFSASHRLYSKFLSDEENLKLFGKCNNPNGHGHNYKVVVTVHGEIDPATGMVMNLADLKKYMEEAIMQPLDHKNLDMDVPYFADVVSTTENVAVYIWDNLQKVLPVGVLYKVKVYETDNNIVVYKGE
With B5 the binding [1] was “binds”, the binding [2] was “binds” and the binding [3] was “no binding”. The binding [4] was “binds”, the binding [5] was “binds” and the binding [6] was “no binding”.

B6: CDK5RAP3 (protein, UniProt Q96JB5 1-506)
chain: MEDHQHVPIDIQTSKLLDWLVDRRHCSLKWQSLVLTIREKINAAIQDMPESEEIAQLLSGSYIHYFHCLRILDLLKGTEASTKNIFGRYSSQRMKDWQEIIALYEKDNTYLVELSSLLVRNVNYEIPSLKKQIAKCQQLQQEYSRKEEECQAGAAEMREQFYHSCKQYGITGENVRGELLALVKDLPSQLAEIGAAAQQSLGEAIDVYQASVGFVCESPTEQVLPMLRFVQKRGNSTVYEWRTGTEPSVVERPHLEELPEQVAEDAIDWGDFGVEAVSEGTDSGISAEAAGIDWGIFPESDSKDPGGDGIDWGDDAVALQITVLEAGTQAPEGVARGPDALTLLEYTETRNQFLDELMELEIFLAQRAVELSEEADVLSVSQFQLAPAILQGQTKEKMVTMVSVLEDLIGKLTSLQLQHLFMILASPRYVDRVTEFLQQKLKQSQLLALKKELMVQKQQEALEEQAALEPKLDLLLEKTKELQKLIEADISKRYSGRPVNLMGTSL
With B6 the binding [1] was “binds”, the binding [2] was “binds” and the binding [3] was “no binding”. The binding [4] was “binds”, the binding [5] was “binds” and the binding [6] was “no binding”.

B7: EBP1 (protein, UniProt Q9UQ80 1-394)
chain: MSGEDEQQEQTIAEDLVVTKYKMGGDIANRVLRSLVEASSSGVSVLSLCEKGDAMIMEETGKIFKKEKEMKKGIAFPTSISVNNCVCHFSPLKSDQDYILKEGDLVKIDLGVHVDGFIANVAHTFVVDVAQGTQVTGRKADVIKAAHLCAEAALRLVKPGNQNTQVTEAWNKVAHSFNCTPIEGMLSHQLKQHVIDGEKTIIQNPTDQQKKDHEKAEFEVHEVYAVDVLVSSGEGKAKDAGQRTTIYKRDPSKQYGLKMKTSRAFFSEVERRFDAMPFTLRAFEDEKKARMGVVECAKHELLQPFNVLYEKEGEFVAQFKFTVLLMPNGPMRITSGPFEPDLYKSEMEVQDAELKALLQSSASRKTQKKKKKKASKTAENATSGETLEENEAGD
For B7, the binding [1] was “binds”, the binding [2] was “binds” and the binding [3] was “no binding”. The binding [4] was “binds”, the binding [5] was “binds” and the binding [6] was “no binding”.

B8: RNA binding protein NOB1 (protein, UniProt Q9ULX3 1-412)
chain: MAPVEHVVADAGAFLRHAALQDIGKNIYTIREVVTEIRDKATRRRLAVLPYELRFKEPLPEYVRLVTEFSKKTGDYPSLSATDIQVLALTYQLEAEFVGVSHLKQEPQKVKVSSSIQHPETPLHISGFHLPYKPKPPQETEKGHSACEPENLEFSSFMFWRNPLPNIDHELQELLIDRGEDVPSEEEEEEENGFEDRKDDSDDDGGGWITPSNIKQIQQELEQCDVPEDVRVGCLTTDFAMQNVLLQMGLHVLAVNGMLIREARSYILRCHGCFKTTSDMSRVFCSHCGNKTLKKVSVTVSDDGTLHMHFSRNPKVLNPRGLRYSLPTPKGGKYAINPHLTEDQRFPQLRLSQKARQKTNVFAPDYIAGVSPFVENDISSRSATLQVRDSTLGAGRRRLNPNASRKKFVKKR
In the case of B8, the binding [1] is reported as “binds”, the binding [2] is reported as “binds” and the binding [3] is reported as “no binding”. For the same molecule, the binding [4] was “binds”, the binding [5] was “binds” and the binding [6] was “no binding”.

B9: UTP6 (protein, UniProt Q9NYH9 1-597)
chain: MAEIIQERIEDRLPELEQLERIGLFSHAEIKAIIKKASDLEYKIQRRTLFKEDFINYVQYEINLLELIQRRRTRIGYSFKKDEIENSIVHRVQGVFQRASAKWKDDVQLWLSYVAFCKKWATKTRLSKVFSAMLAIHSNKPALWIMAAKWEMEDRLSSESARQLFLRALRFHPECPKLYKEYFRMELMHAEKLRKEKEEFEKASMDVENPDYSEEILKGELAWIIYKNSVSIIKGAEFHVSLLSIAQLFDFAKDLQKEIYDDLQALHTDDPLTWDYVARRELEIESQTEEQPTTKQAKAVEVGRKEERCCAVYEEAVKTLPTEAMWKCYITFCLERFTKKSNSGFLRGKRLERTMTVFRKAHELKLLSECQYKQLSVSLLCYNFLREALEVAVAGTELFRDSGTMWQLKLQVLIESKSPDIAMLFEEAFVHLKPQVCLPLWISWAEWSEGAKSQEDTEAVFKKALLAVIGADSVTLKNKYLDWAYRSGGYKKARAVFKSLQESRPFSVDFFRKMIQFEKEQESCNMANIREYYERALREFGSADSDLWMDYMKEELNHPLGRPENCGQIYWRAMKMLQGESAEAFVAKHAMHQTGHL
B9 was tested, and the binding [1] was “binds”, the binding [2] was “binds” and the binding [3] was “no binding”. For the same molecule, the binding [4] was “binds”, the binding [5] was “binds” and the binding [6] was “no binding”.
